Data reported in a collection of fitness landscapes (doi:10.1016/j.celrep.2020.107928).
Over roughly 81,000 sequences, “one-hybrid fitness for binding parS DNA” has its median near -0.17; the highest 2% begin near 0.51. This is one part of the list.

B1: Caulobacter ParB omega fusion; a variant is named by its letters at X, in order, B8GW30 (parent)
chain: MESVVVGEPGMSEGRRGLGRGLSALLGEVDAAPAQAPGEQLGGSREAPIEILQRNPDQPRRTFREEDLEDLSNSIREKGVLQPILVRPSPDTAGEYQIVAGERAWRAAQRAGLKTVPIMVRELDDLAVLEIGIIENVQRADLNVLEEALSYKVLMEKFERTQENIAQTIGKSXSHVANXMRLLXLPDEVQSYLVSGELTAXHARAIAAAADPVALAKQIIEGGLSVRETEALARKAPNLSAGKSKGGRPPRVKDTDTQALESDLSSVLGLDVSIDHRGSTGTLTITYATLEQLDDLCNRLTRGI

Variants of: B1
Test: one-hybrid fitness for binding parS DNA (scaled: cognate 1, non-cognate 0); higher = stronger binding
Conditions: with parS DNA site
In short: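 Selection: bacterial one-hybrid in E. coli USO, HIS3 reporter with the site 19 bp from the promoter, 48 hours at 37°C on M9-minus-histidine plus 0.1 mM IPTG and 5 mM 3-AT. Libraries were Caulobacter ParB with four randomised specificity codons, sequenced on Illumina before and after selection. Fitness is the rescaled log change in variant-to-wild-type read ratio, anchored to the cognate and non-cognate sites.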

Row | Variant | one-hybrid fitness for binding parS DNA
1 | ANQE | ≤ 0.2
2 | PNCS | ≤ 0.2
3 | MENS | ≤ 0.2
4 | CYTA | ≤ 0.2
5 | NFKC | ≤ 0.2
6 | DLDC | ≤ 0.2
7 | SSGW | ≤ 0.2
8 | GPRA | ≤ 0.2
9 | LPTI | ≤ 0.2
10 | DDSG | ≤ 0.2
11 | CPGM | ≤ 0.2
12 | HNTC | ≤ 0.2
13 | ATHT | ≤ 0.2
14 | TNRM | ≤ 0.2
15 | QWHT | ≤ 0.2
16 | QIAR | ≤ 0.2
17 | PDHP | ≤ 0.2
18 | QILA | ≤ 0.2
19 | PIPC | ≤ 0.2
20 | NTHE | ≤ 0.2
21 | NKLF | ≤ 0.2
22 | RAMP | ≤ 0.2
23 | KANF | ≤ 0.2
24 | KCSY | ≤ 0.2

Row | Variant | one-hybrid fitness for binding parS DNA
25 | TRAE | ≤ 0.2
26 | HRTE | ≤ 0.2
27 | HEQL | ≤ 0.2
28 | CTSH | ≤ 0.2
29 | RDRG | ≤ 0.2
30 | RANS | 0.96
31 | FGEY | ≤ 0.2
32 | GQAC | ≤ 0.2
33 | NDHY | ≤ 0.2
34 | FDSS | ≤ 0.2
35 | PHFS | ≤ 0.2
36 | GTEL | ≤ 0.2
37 | ENDM | ≤ 0.2
38 | RMPC | 0.725
39 | FRWC | ≤ 0.2
40 | TRMY | ≤ 0.2
41 | VSQK | ≤ 0.2
42 | AVRG | ≤ 0.2
43 | GRVH | ≤ 0.2
44 | PGDT | ≤ 0.2
45 | IKAF | ≤ 0.2
46 | LSQR | ≤ 0.2
47 | AYRH | ≤ 0.2
48 | IGHD | ≤ 0.2

Row | Variant | one-hybrid fitness for binding parS DNA
49 | WSRD | ≤ 0.2
50 | TLCI | ≤ 0.2
51 | QGYR | ≤ 0.2
52 | VPYN | ≤ 0.2
53 | PPSL | ≤ 0.2
54 | RKTT | 0.754
55 | NAEM | ≤ 0.2
56 | RIAP | ≤ 0.2
57 | GSMQ | ≤ 0.2
58 | DVIS | ≤ 0.2
59 | YRRF | ≤ 0.2
60 | IRWT | ≤ 0.2
61 | NAIL | ≤ 0.2
62 | EHQR | ≤ 0.2
63 | NMKY | ≤ 0.2
64 | FINS | ≤ 0.2
65 | RGIM | ≤ 0.2
66 | QVAE | ≤ 0.2
67 | QVDK | ≤ 0.2
68 | GHTS | ≤ 0.2
69 | TKRG | ≤ 0.2
70 | KDEG | ≤ 0.2
71 | FMTR | ≤ 0.2
72 | AQEI | ≤ 0.2

Row | Variant | one-hybrid fitness for binding parS DNA
73 | KREW | ≤ 0.2
74 | LQCA | ≤ 0.2
75 | WCFG | ≤ 0.2
76 | LSIR | ≤ 0.2
77 | TRLS | ≤ 0.2
78 | VYAT | ≤ 0.2
79 | LPDV | ≤ 0.2
80 | QSDI | ≤ 0.2
81 | IPAC | ≤ 0.2
82 | QNDD | ≤ 0.2
83 | GLQV | ≤ 0.2
84 | QQSA | ≤ 0.2
85 | GVEG | ≤ 0.2
86 | HWSA | ≤ 0.2
87 | GCRC | ≤ 0.2
88 | SPNP | ≤ 0.2
89 | WALP | ≤ 0.2
90 | KCLR | ≤ 0.2
91 | ASDK | ≤ 0.2
92 | VISG | ≤ 0.2
93 | KCYT | ≤ 0.2
94 | RFTL | ≤ 0.2
95 | ARPF | ≤ 0.2
96 | EMMG | ≤ 0.2

Row | Variant | one-hybrid fitness for binding parS DNA
97 | NEDS | ≤ 0.2
98 | HPGT | ≤ 0.2
99 | QCGT | ≤ 0.2
100 | WSYC | ≤ 0.2
101 | SHHL | ≤ 0.2
102 | RVGP | ≤ 0.2
103 | NLQN | ≤ 0.2
104 | KASS | ≤ 0.2
105 | SILY | ≤ 0.2
106 | CDPG | ≤ 0.2
107 | NSLT | ≤ 0.2
108 | ERTH | ≤ 0.2
109 | KLPF | ≤ 0.2
110 | IVDR | ≤ 0.2
111 | EQMC | ≤ 0.2
112 | CIVP | ≤ 0.2
113 | SAPA | ≤ 0.2
114 | SEPI | ≤ 0.2
115 | PIIL | ≤ 0.2
116 | ADMV | ≤ 0.2
117 | PVWS | ≤ 0.2
118 | SSIT | ≤ 0.2
119 | AQCY | ≤ 0.2
120 | QRYM | ≤ 0.2

Row | Variant | one-hybrid fitness for binding parS DNA
121 | DWSG | ≤ 0.2
122 | SKEI | ≤ 0.2
123 | LWPG | ≤ 0.2
124 | MKHF | ≤ 0.2
125 | WLKL | ≤ 0.2
126 | HTNS | ≤ 0.2
127 | ELLV | ≤ 0.2
128 | QKGK | ≤ 0.2
129 | RDMR | ≤ 0.2
130 | QTGN | ≤ 0.2
131 | LRSE | ≤ 0.2
132 | QGTC | ≤ 0.2
133 | MWSG | ≤ 0.2
134 | VLPD | ≤ 0.2
135 | SYTI | ≤ 0.2
136 | LKMR | ≤ 0.2
137 | WGRW | ≤ 0.2
138 | QAES | ≤ 0.2
139 | QCWR | ≤ 0.2
140 | DPHN | ≤ 0.2
141 | QCHD | ≤ 0.2
142 | WSKR | ≤ 0.2
143 | TWMS | ≤ 0.2
144 | QVRS | ≤ 0.2

Row | Variant | one-hybrid fitness for binding parS DNA
145 | NLGS | ≤ 0.2
146 | QWCF | ≤ 0.2
147 | QWKG | ≤ 0.2
148 | NSYS | ≤ 0.2
149 | VHMV | ≤ 0.2
150 | LEQT | ≤ 0.2
151 | MYRK | ≤ 0.2
152 | DRPL | ≤ 0.2
153 | ASIY | ≤ 0.2
154 | RWAW | ≤ 0.2
155 | MWPT | ≤ 0.2
156 | PSTK | ≤ 0.2
157 | YASL | ≤ 0.2
158 | GLLG | ≤ 0.2
159 | KRFC | ≤ 0.2
160 | VLLI | ≤ 0.2
161 | PQVC | ≤ 0.2
162 | DNWR | ≤ 0.2
163 | WYSV | ≤ 0.2
164 | KDKE | ≤ 0.2
165 | VLPS | ≤ 0.2
166 | ANYF | ≤ 0.2
167 | RHND | ≤ 0.2
168 | MQVQ | ≤ 0.2

Row | Variant | one-hybrid fitness for binding parS DNA
169 | EPVT | ≤ 0.2
170 | MGST | ≤ 0.2
171 | ACDY | ≤ 0.2
172 | YYWS | ≤ 0.2
173 | HAML | ≤ 0.2
174 | DFID | ≤ 0.2
175 | LGQL | ≤ 0.2
176 | PLAR | ≤ 0.2
177 | HDSL | ≤ 0.2
178 | THCE | ≤ 0.2
179 | YPIT | ≤ 0.2
180 | IIYI | ≤ 0.2
181 | PYIE | ≤ 0.2
182 | QGEC | ≤ 0.2
183 | KEPT | ≤ 0.2
184 | TGTH | ≤ 0.2
185 | KYDR | ≤ 0.2
186 | LICV | ≤ 0.2
187 | NPPK | ≤ 0.2
188 | NPFT | ≤ 0.2
189 | SDKR | ≤ 0.2
190 | GCIC | ≤ 0.2
191 | RYPS | 0.635
192 | CGVC | ≤ 0.2

Row | Variant | one-hybrid fitness for binding parS DNA
193 | QRIA | ≤ 0.2
194 | LVVT | ≤ 0.2
195 | TEYT | ≤ 0.2
196 | EWGC | ≤ 0.2
197 | HTYW | ≤ 0.2
198 | LHAA | ≤ 0.2
199 | DETR | ≤ 0.2
200 | GTTS | ≤ 0.2
201 | LTTR | ≤ 0.2
202 | SAQG | ≤ 0.2
203 | STYY | ≤ 0.2
204 | QADL | ≤ 0.2
205 | IKYW | ≤ 0.2
206 | MKNI | ≤ 0.2
207 | RSQP | ≤ 0.2
208 | LLAR | ≤ 0.2
209 | TSGG | ≤ 0.2
210 | LYNC | ≤ 0.2
211 | MMWS | ≤ 0.2
212 | AAKL | ≤ 0.2
213 | KKKG | ≤ 0.2
214 | FSGR | ≤ 0.2
215 | PTSL | ≤ 0.2
216 | AKHA | ≤ 0.2

Row | Variant | one-hybrid fitness for binding parS DNA
217 | RTQH | 0.332
218 | WSDE | ≤ 0.2
219 | EHAY | ≤ 0.2
220 | ADLC | ≤ 0.2
221 | NIVA | ≤ 0.2
222 | QDSL | ≤ 0.2
223 | VCFG | ≤ 0.2
224 | AMCG | ≤ 0.2
225 | WSKV | ≤ 0.2
226 | AFGL | ≤ 0.2
227 | MHMS | ≤ 0.2
228 | AAVS | ≤ 0.2
229 | SRET | ≤ 0.2
230 | ASAC | ≤ 0.2
231 | FHRF | ≤ 0.2
232 | WAMH | ≤ 0.2
233 | IANR | ≤ 0.2
234 | GMVR | ≤ 0.2
235 | WHQC | ≤ 0.2
236 | NSLA | 0.226
237 | RCLY | 0.49
238 | QESL | ≤ 0.2
239 | EVNG | ≤ 0.2
240 | NSGL | ≤ 0.2

Row | Variant | one-hybrid fitness for binding parS DNA
241 | EMDI | ≤ 0.2
242 | ADKS | ≤ 0.2
243 | CVSG | ≤ 0.2
244 | PTDP | ≤ 0.2
245 | ISMR | ≤ 0.2
246 | LGVQ | ≤ 0.2
247 | AWST | ≤ 0.2
248 | MGQS | ≤ 0.2
249 | SMRY | ≤ 0.2
250 | ADPC | ≤ 0.2
251 | FLRC | ≤ 0.2
252 | QTDG | ≤ 0.2
253 | DRTT | ≤ 0.2
254 | QPLF | ≤ 0.2
255 | QHSY | ≤ 0.2
256 | HWNC | ≤ 0.2
257 | VCKA | ≤ 0.2
258 | MRGC | ≤ 0.2
259 | GHIC | ≤ 0.2
260 | HQPS | ≤ 0.2
261 | IHEE | ≤ 0.2
262 | SWPA | ≤ 0.2
263 | VNNC | ≤ 0.2
264 | GHAL | ≤ 0.2

Row | Variant | one-hybrid fitness for binding parS DNA
265 | LSAY | ≤ 0.2
266 | RHWF | ≤ 0.2
267 | RVNH | ≤ 0.2
268 | YPST | ≤ 0.2
269 | QFPT | ≤ 0.2
270 | FGYL | ≤ 0.2
271 | KEHD | ≤ 0.2
272 | RWIN | ≤ 0.2
273 | TFHC | ≤ 0.2
274 | LLKP | ≤ 0.2
275 | HWWW | ≤ 0.2
276 | ESPV | ≤ 0.2
277 | TVCL | ≤ 0.2
278 | QKRI | ≤ 0.2
279 | TAYQ | ≤ 0.2
280 | KSLT | ≤ 0.2
281 | GGDS | ≤ 0.2
282 | VMPY | ≤ 0.2
283 | RMQR | 0.223
284 | NEGS | ≤ 0.2
285 | YLTG | ≤ 0.2
286 | PRHH | ≤ 0.2
287 | LHEP | ≤ 0.2
288 | GSPA | ≤ 0.2

Row | Variant | one-hybrid fitness for binding parS DNA
289 | RFAL | ≤ 0.2
290 | RWHI | ≤ 0.2
291 | YRTY | ≤ 0.2
292 | KRKH | ≤ 0.2
293 | WCVC | ≤ 0.2
294 | KTHR | ≤ 0.2
295 | QLQP | ≤ 0.2
296 | YKHV | ≤ 0.2
297 | KERC | ≤ 0.2
298 | IHRF | ≤ 0.2
299 | HQPF | ≤ 0.2
300 | SNTN | ≤ 0.2
301 | TYKC | ≤ 0.2
302 | WYVY | ≤ 0.2
303 | SAIR | ≤ 0.2
304 | NFHV | ≤ 0.2
305 | ACPE | ≤ 0.2
306 | QAED | ≤ 0.2
